From article PMC6919601, “Identification of Plasmodium dipeptidyl aminopeptidase allosteric inhibitors by high throughput screening” (PLoS ONE, 2019)
Screen size: about 110,000 compounds; about 230 (0.21%) showed an effect of 50% or more. The list shows a part of the results.

target: DPAP1 (Plasmodium falciparum, UniProt Q8IIJ9); assay: primary screen, percent inhibition; read by cleavage of a fluorogenic dipeptide substrate; higher = more effect of the substance; parameters: species or system P. falciparum D10 trophozoite lysates; single well
Sequence (Q8IIJ9 whole entry, looked up): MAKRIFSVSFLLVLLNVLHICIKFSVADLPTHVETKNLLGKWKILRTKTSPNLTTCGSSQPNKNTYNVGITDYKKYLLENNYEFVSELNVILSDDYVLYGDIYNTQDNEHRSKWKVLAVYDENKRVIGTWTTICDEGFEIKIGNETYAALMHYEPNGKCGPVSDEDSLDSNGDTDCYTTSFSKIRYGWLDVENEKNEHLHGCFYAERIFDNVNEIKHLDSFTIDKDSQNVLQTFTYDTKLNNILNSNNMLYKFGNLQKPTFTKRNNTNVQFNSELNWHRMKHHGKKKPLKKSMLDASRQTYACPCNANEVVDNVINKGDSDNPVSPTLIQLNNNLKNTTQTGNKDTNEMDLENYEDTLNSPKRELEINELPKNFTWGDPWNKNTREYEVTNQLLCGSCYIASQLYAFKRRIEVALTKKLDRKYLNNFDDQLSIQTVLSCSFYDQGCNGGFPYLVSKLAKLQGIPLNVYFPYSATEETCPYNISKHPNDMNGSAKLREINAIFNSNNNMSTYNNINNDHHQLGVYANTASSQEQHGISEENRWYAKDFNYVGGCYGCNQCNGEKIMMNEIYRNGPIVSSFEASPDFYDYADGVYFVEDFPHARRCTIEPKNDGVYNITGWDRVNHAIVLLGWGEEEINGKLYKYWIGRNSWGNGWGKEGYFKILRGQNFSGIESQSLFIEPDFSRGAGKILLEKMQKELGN
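Further: 30 min substrate incubation versus DMSO and 10 µM JCP410 controls.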

Compared with Cc1cc(C)nc(/N=C(\N)Nc2ccccc2O)n1, COc1nc(N)nc(N(C)C(=O)c2ccccc2)n1 is lower in “% Inhibition @ 10 uM” value: 0.727% for the first, -0.0953% for the second.

First: O=C(NCc1ccc(Cl)cc1Cl)C(=O)NC1CCCCC1
Second: Cc1cc(C(=O)NC2CCCCC2)on1
The “% Inhibition @ 10 uM” value of the first is higher: 6.17% for the first, -5.25% for the second.

Compared with O=C(NCc1ccc(F)cc1)c1nc(O)c2nnn(Cc3ccc4c(c3)OCO4)c2n1, O=C(COCc1cc(-c2ccco2)on1)NCc1ccc(F)cc1 is higher in “% Inhibition @ 10 uM” value: -5.51% for the first, -0.769% for the second.

Compared with O=C1/C(=C\c2cccnc2)S(=O)(=O)c2ccccc21, O=c1/c(=C/c2cccnc2)sc2nc(-c3ccc(Cl)cc3Cl)nn12 is lower in “% Inhibition @ 10 uM” value: -0.105% for the first, -1.17% for the second.

Compared with CN(C)c1ccc(CN2CCN(c3ccccc3)CC2)cc1, CC(=O)Nc1sc2c(c1CN1CCN(c3ccccn3)CC1)CCCC2 is lower in “% Inhibition @ 10 uM” value: -3.56% for the first, -5.69% for the second.

Going from COc1ccc(N2C(=O)CC(N3CCN(C(=O)c4ccccc4F)CC3)C2=O)cc1 (stereo not shown) to CCN(c1ccccc1)S(=O)(=O)c1ccc(OC)cc1, the “% Inhibition @ 10 uM” value falls from -3.04% to -4.03%.

First: CCCS(=O)(=O)N1CCC(C(=O)NCc2ccccc2Cl)CC1
Second: CCS(=O)(=O)N1CCCC(C(=O)NCc2ccccc2Cl)C1 (stereo not shown)
The “% Inhibition @ 10 uM” value of the first is lower: -1.79% for the first, 3.24% for the second.

Going from COc1ccccc1CNC(=O)Cn1ncn2c(cc3ccccc32)c1=O to COc1ccccc1-c1cc(C(=O)Nc2c(C)nn(Cc3ccccc3Cl)c2C)no1, the “% Inhibition @ 10 uM” value rises from 1.68% to 10.7%.

First: Cc1onc(-c2c(Cl)cccc2Cl)c1C(=O)NCC1CCCO1 (stereo not shown)
Second: Cc1onc(-c2ccccc2Cl)c1C(=O)N1CCCC1
The “% Inhibition @ 10 uM” value of the first is lower: 0.177% for the first, 0.916% for the second.

Going from COc1ccc(N(CC(=O)Nc2ccc(NC(C)=O)cc2)S(=O)(=O)c2ccccc2)cc1Cl to COc1ccccc1NS(=O)(=O)c1cccc(C(=O)Nc2ccc(Br)cc2)c1, the “% Inhibition @ 10 uM” value falls from 0.889% to -1.04%.

First: CCOC(=O)c1sc(NC(=O)c2ccc(S(=O)(=O)N3CC(C)CC(C)C3)cc2)nc1C (stereo not shown)
Second: CCOC(=O)c1sc(NC(=O)CSC2=NC(=O)C(Cc3ccccc3)C(=O)N2)nc1C (stereo not shown)
The “% Inhibition @ 10 uM” value of the first is higher: 6.23% for the first, -3.14% for the second.

First: CC(C)=CCc1c(O)c2ccccc2n(C)c1=O
Second: CCCCn1c(=O)c(C(=O)Nc2ccc(Cl)cc2)c(O)c2ccccc21
The “% Inhibition @ 10 uM” value of the first is higher: -0.988% for the first, -2.85% for the second.

Compared with c1nc(NCCc2ccsc2)c2nc3n(c2n1)CCCCC3, CN(CCNC(=O)C1CCN(c2nnc(-n3cccc3)s2)CC1)C1CCCCC1 is higher in “% Inhibition @ 10 uM” value: -6.33% for the first, -4.04% for the second.

First: O=C(NC1CC1)c1ccc2nc(-c3ccccc3)c(-c3ccccc3)nc2c1
Second: CCOC(=O)c1[nH]nc(C(=O)c2ccccc2)c1-c1ccccc1
The “% Inhibition @ 10 uM” value of the first is lower: -0.945% for the first, 2.38% for the second.

First: CCN1C(=O)/C(=C/c2ccc(Cl)c(Cl)c2)N=C1SCC(=O)NCc1ccco1
Second: Cc1cccc(NCc2n[nH]c(SCC(=O)Nc3ccc(Br)cc3)n2)c1
The “% Inhibition @ 10 uM” value of the first is higher: 2.68% for the first, 2.36% for the second.

Compared with COc1ccc2cc(S(=O)(=O)c3ccc(C(C)C)cc3)c(=O)oc2c1, COc1ccc(S(=O)(=O)c2cc3cc(Br)cc(Br)c3oc2=O)cc1 is lower in “% Inhibition @ 10 uM” value: 3.75% for the first, 2.12% for the second.

First: C=CC1CN2CCC1CC2[C@@H](OC(=O)CCC(=O)O)c1ccnc2ccccc12 (stereo partly shown)
Second: COc1cc(CN2CCC(Cc3ccccc3)CC2)cc(Br)c1O
The “% Inhibition @ 10 uM” value of the first is lower: 4.54% for the first, 4.81% for the second.

Going from O=C(CSc1nc2c(sc3ccccc32)c(=O)n1CCO)NCC1CCCO1 (stereo not shown) to CC(CNC(=O)COCc1cc(-c2ccc(F)cc2)on1)c1ccccc1 (stereo not shown), the “% Inhibition @ 10 uM” value falls from 2.89% to 1.08%.

First: CN1CCC/C1=C/C(=O)c1ccc([N+](=O)[O-])cc1
Second: COc1ccc(C(=O)C23CN4CN(CN(C4)C2)C3)cc1
The “% Inhibition @ 10 uM” value of the first is lower: -6.07% for the first, -2.21% for the second.

Compared with Cc1cccc(NC(=O)c2c(O)nc3c(c2O)CCCC3)n1, C=C(C)CNC(=S)Nc1sc2c(c1C(=O)OCC)CCCC2 is higher in “% Inhibition @ 10 uM” value: -0.458% for the first, 1.05% for the second.

Compared with CCOC(=O)N1CCC(N2Cc3cccc(C(=O)O)c3C2=O)CC1, CCOC(=O)C1CCCCN1Cc1ccc(F)cc1F (stereo not shown) is higher in “% Inhibition @ 10 uM” value: 0.494% for the first, 4.67% for the second.

First: CCOC(=O)c1cc(S(=O)(=O)NC(CC)c2cccs2)cn1C (stereo not shown)
Second: N#CC(NC(=O)[C@@H](O)CS(=O)(=O)Cc1ccccc1)c1cccs1 (stereo partly shown)
The “% Inhibition @ 10 uM” value of the first is higher: 0.655% for the first, -3.49% for the second.

Going from O=C1C2C(C(=O)N1c1ccc(Oc3ccc(Br)cc3)cc1)C1(Br)c3ccccc3C2(Br)c2ccccc21 (stereo not shown) to N#CC1=C(N)OC2=C(C(=O)c3ccccc3C2=O)C1c1ccc(-c2ccccc2)cc1 (stereo not shown), the “% Inhibition @ 10 uM” value rises from -4.4% to 4.51%.

First: CC(=O)N(C)c1ccc(NC(=O)C(C)Oc2ccc(C)cc2)cc1 (stereo not shown)
Second: O=C(NC(=O)c1ccc(Cl)cc1)Nc1ccccc1OC(F)F
The “% Inhibition @ 10 uM” value of the first is lower: -1.94% for the first, 3.3% for the second.

First: Clc1ccc(OCCCCCN2CCNCC2)c(Cl)c1
Second: COc1ccc(S(=O)(=O)N2CCC(C)CC2)cc1OC
The “% Inhibition @ 10 uM” value of the first is higher: 2.74% for the first, -4.18% for the second.

Going from Cc1nnc(NC(=O)C2CCCCC2)s1 to Cc1cc(NC(=O)C2CCCCC2)cc(C)c1O, the “% Inhibition @ 10 uM” value rises from -2.81% to 4.57%.

First: Cc1nccn1S(=O)(=O)c1ccc(Cl)cc1
Second: Cc1ccccc1NC(=O)CCS(=O)(=O)c1ccc(Cl)cc1
The “% Inhibition @ 10 uM” value of the first is higher: -6.08% for the first, -9.4% for the second.

Compared with CC(=O)Nc1ccc(NC(=O)Cn2ncc3c4ccccc4nc-3c2O)cn1, COc1ccc(NC(=O)c2cc3ccccc3o2)cn1 is higher in “% Inhibition @ 10 uM” value: -6.37% for the first, -2.63% for the second.

Compared with NC(=O)c1c(NC(=O)C2CCCCC2C(=O)O)sc2c1CCCCC2 (stereo not shown), CCCc1cc(N2CCN(C3CCCCC3)CC2)n2cnnc2n1 is higher in “% Inhibition @ 10 uM” value: 2.92% for the first, 3.27% for the second.

Going from Cc1nn(C)cc1CN(C)C(=O)c1nn2c(C(F)(F)F)cc(-c3cccs3)nc2c1Cl to Cc1cc(C)cc(C(=O)N(Cc2nc(-c3ccccc3)no2)C(C)C)c1, the “% Inhibition @ 10 uM” value falls from -1.98% to -6.56%.

First: CC1CN(C(=O)c2ccc(NS(=O)(=O)c3ccc(C(C)(C)C)cc3)cc2)CC(C)O1 (stereo not shown)
Second: CC(C)(C)c1ccc(C(=O)NCc2cccc3ccccc23)cc1
The “% Inhibition @ 10 uM” value of the first is higher: -3.41% for the first, -3.48% for the second.

Going from Cc1cc(Cl)ccc1OC(C)C(=O)n1cnc2ccccc21 (stereo not shown) to CCOc1ccccc1NC(=O)CN(c1cc(Cl)ccc1C)S(C)(=O)=O, the “% Inhibition @ 10 uM” value falls from -6.7% to -10%.

First: CC1(C)C(N2CCOCC2)C(c2ccccc2)S1(=O)=O (stereo not shown)
Second: CN1CCC(NCCc2ccccc2)CC1
The “% Inhibition @ 10 uM” value of the first is higher: -0.999% for the first, -1.81% for the second.

Going from CC1(C)CC(=O)C2=C(C1)N(CCc1ccccc1)C(=O)NC2(C(F)(F)F)C(F)(F)F to CC1=CN2C(=NC(C(F)(F)F)(C(F)(F)F)N=C2c2ccco2)C=C1, the “% Inhibition @ 10 uM” value falls from 0.221% to -3.53%.

First: O=C(NC1CC1)c1ccc(CS(=O)(=O)Cc2ccc(Cl)cc2)o1
Second: CC(C)(C)NC(=O)CN(Cc1c(F)cccc1Cl)S(=O)(=O)c1ccc(Cl)cc1
The “% Inhibition @ 10 uM” value of the first is higher: 2.05% for the first, -3.45% for the second.

First: COc1ccc(-c2c3c(nc4ncnn24)-c2ccccc2C3=O)cc1
Second: c1ccc2nc(-c3ccc4c(c3)OCO4)ccc2c1
The “% Inhibition @ 10 uM” value of the first is higher: 1.35% for the first, 0.823% for the second.

Going from O=C(c1ccccc1)N1c2ccccc2N=C2CC(c3ccco3)CC(O)=C2C1c1ccco1 (stereo not shown) to O=C(CC(c1ccco1)S(=O)(=O)c1ccccc1)c1ccc(Cl)cc1 (stereo not shown), the “% Inhibition @ 10 uM” value rises from -2.45% to 2.05%.

Going from Cc1ccc(CS(=O)(=O)CCC(=O)N2CCC3(CC2)OCCO3)cc1 to CC1CCCCN1CCCNC(=O)C1CCN(S(=O)(=O)N2CCC3(CC2)OCCO3)CC1 (stereo not shown), the “% Inhibition @ 10 uM” value rises from -2.99% to 1.97%.

Going from c1ccc2oc(CCCCc3nc4ccccc4o3)nc2c1 to OCCCNCc1cccn1-c1ccccc1, the “% Inhibition @ 10 uM” value falls from 4.08% to -4.61%.

Going from COc1cc(OC)c(C2CC(=O)Nc3c2ccc2ccccc32)cc1OC (stereo not shown) to O=C1CC(c2ccccc2Cl)c2cc3c(cc2N1)OCCO3 (stereo not shown), the “% Inhibition @ 10 uM” value falls from 3.35% to -17.9%.

Going from O=C1C2C(C(=O)N1c1ccc(Cl)c(Cl)c1)C1C=CC2C12CC2 (stereo not shown) to NS(=O)(=O)c1ccc(N2CCC(c3ccc(Cl)cc3)=N2)cc1, the “% Inhibition @ 10 uM” value falls from 5.05% to 1.38%.

Going from Cc1ccc(-c2csc(/C(C#N)=C/c3cccnc3)n2)c(C)c1 to Cc1ccc(/C=C2/N=C(c3cccc4ccccc34)OC2=O)cc1, the “% Inhibition @ 10 uM” value rises from 1.38% to 8.21%.

First: Clc1cccc(-n2cc(-c3ccccc3)c3c(N4CCC5(CC4)OCCO5)ncnc32)c1
Second: Cc1cccc(C)c1OCc1nc2c3cnn(-c4ccc(Cl)cc4)c3ncn2n1
The “% Inhibition @ 10 uM” value of the first is higher: 2.56% for the first, -4.64% for the second.

Compared with Cc1ccnc(NC(=O)C(C)c2ccc(CC(C)C)cc2)n1 (stereo not shown), COc1ccc2nc(NC(=O)C(NS(=O)(=O)c3cccc4nsnc34)C(C)C)sc2c1 (stereo not shown) is higher in “% Inhibition @ 10 uM” value: 0.324% for the first, 2.93% for the second.

Compared with COC(=O)c1c(C)oc2ccc(O)c(CN3CCN(C)CC3)c12, COc1cc(/C=C2\SC(N3CCOCC3)=NC2=O)ccc1O is lower in “% Inhibition @ 10 uM” value: 0.276% for the first, -5.63% for the second.

Compared with CCN(CC)CCCNC(=O)c1c(C)oc2ncn(C)c(=O)c12, CCOC(=O)c1c(-c2ccccc2)csc1NC(=O)c1nn(CC)cc1Br is lower in “% Inhibition @ 10 uM” value: 2.74% for the first, 0.413% for the second.

First: CC(C)C[C@H](NC(=O)c1ccc(B(O)O)cc1)C(=O)NCC#N
Second: CNC(=O)CCCc1nc(-c2ccc(OC)cc2)no1
The “% Inhibition @ 10 uM” value of the first is lower: -1.82% for the first, 0.558% for the second.

Compared with CCOc1ccc(C2CC(=O)c3c([nH]c(C(=O)OC)c3C)C2)cc1OC (stereo not shown), COCCCN1C(=S)NC2c3cccc(OC)c3OC1(C)C2C(=O)N(C)C (stereo not shown) is lower in “% Inhibition @ 10 uM” value: 1.16% for the first, -2.92% for the second.

Going from CCCCN1C(=O)C2Cc3c([nH]c4ccccc34)C(c3cccc(O)c3)N2C1=O (stereo not shown) to O=C(Cn1ncc2c3ccccc3n(Cc3ccccc3F)c2c1=O)N1CCc2ccccc2C1, the “% Inhibition @ 10 uM” value falls from 7.92% to 1.8%.

Going from C(CNC1C2CC3CC(C2)CC1C3)CN1CCOCC1 (stereo not shown) to CC(C)CS(=O)(=O)C1=NN2C(=N)/C(=C\c3ccco3)C(=O)N=C2S1, the “% Inhibition @ 10 uM” value rises from -4.01% to 1.9%.
